For 110 compounds, z-score results are on record in PubChem BioAssay AID488969 (Vanderbilt High Throughput Screening Facility, 2010).

The full ranking holds about 110,000 compounds; the median of “z-score” is about -0.1, and the highest 2% start at about 2. This is one part of the list. The source made the active and inactive calls.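 The calls were made as follows: active = z-score in the third read window above 3 or below -3; inactive = the rest.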

The target in the assay is Metabotropic glutamate receptor 8 (Rattus norvegicus) (UniProt P70579). As to the kind of experiment: mGluR8 Gi/Go-coupled signaling modulation – cell-based, rat, thallium flux, HTS, primary screen (AID 488969). As to conditions: HEK293 rat mGluR8, GIRK (G protein-gated inwardly rectifying potassium channel) thallium flux, FluoZin2; at 10 µM; stronger effect = higher value; submaximal glutamate (EC20) added with thallium.
Sequence of UniProt P70579 (P70579 whole entry, looked up): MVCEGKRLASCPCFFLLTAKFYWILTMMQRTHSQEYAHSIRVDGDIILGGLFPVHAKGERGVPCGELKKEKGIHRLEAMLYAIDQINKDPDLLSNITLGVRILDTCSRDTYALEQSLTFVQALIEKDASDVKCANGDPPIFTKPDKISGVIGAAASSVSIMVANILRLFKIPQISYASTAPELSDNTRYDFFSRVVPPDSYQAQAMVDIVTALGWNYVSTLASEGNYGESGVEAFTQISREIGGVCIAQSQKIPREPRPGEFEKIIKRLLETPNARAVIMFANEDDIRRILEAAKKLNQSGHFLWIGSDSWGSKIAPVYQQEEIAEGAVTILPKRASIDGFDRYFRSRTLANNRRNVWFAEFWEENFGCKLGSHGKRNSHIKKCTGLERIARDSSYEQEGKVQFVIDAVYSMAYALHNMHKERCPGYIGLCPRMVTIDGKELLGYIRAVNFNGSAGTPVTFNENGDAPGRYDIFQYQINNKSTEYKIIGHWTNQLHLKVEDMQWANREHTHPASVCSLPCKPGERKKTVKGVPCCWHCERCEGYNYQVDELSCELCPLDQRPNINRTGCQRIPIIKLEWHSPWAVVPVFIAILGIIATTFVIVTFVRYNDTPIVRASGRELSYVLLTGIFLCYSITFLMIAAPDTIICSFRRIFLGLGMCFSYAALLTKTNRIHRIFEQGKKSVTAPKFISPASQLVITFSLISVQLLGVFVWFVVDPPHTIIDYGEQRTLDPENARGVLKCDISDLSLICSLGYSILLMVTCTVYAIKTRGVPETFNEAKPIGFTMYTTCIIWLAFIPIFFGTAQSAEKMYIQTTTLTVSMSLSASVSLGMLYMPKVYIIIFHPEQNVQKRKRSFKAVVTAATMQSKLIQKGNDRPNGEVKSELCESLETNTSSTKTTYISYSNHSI
Turning to `Cc1cccc(NC(=O)CSc2nc(C)c(CC(=O)c3ccc(Br)cc3)c(C)c2C#N)c1C`, the z-score is -0.015.
The value for `CCc1nnc(NC(=O)CSc2nc(-c3ccccc3)cc(-c3ccc(F)cc3)c2C#N)s1` was -0.163; that for `CCN1CCc2c(C#N)c(N3CCOCC3)nc(N3CCOCC3)c2C1` was 1.35.
The value for `Cc1oc(-c2cccc(Cl)c2)nc1CN1CCCC(C(=O)NC(C)c2ccc3c(c2)OCCO3)C1` (stereo not given) was 0.226; that for `Cc1ccc(C)c(NC(=O)/C(C#N)=C/c2cn(CC(=O)NCc3ccco3)c3ccccc23)c1` was -0.228; that for `COc1ccccc1CNC(=O)C1CC(=O)N(c2ccc(C)c(C)c2)C1` (stereo not given) was -0.345.
The value for `CC1=CC(C)(C)N2C(=O)C3(SCC(=O)N3c3ccc(O)cc3)c3cc(C)cc1c32` (stereo not given) was 0.599.
Regarding `COc1ccc(C(=O)Nc2ccc(Oc3ncnc4sc(-c5ccccc5)cc34)cc2)cc1OC`, the z-score is active: 4.83.
`CC1(C)CC2(CCO1)OC(=O)CC2C(=O)NCc1ccccc1` (stereo not given) yielded a z-score of -0.908.
The value for `COc1ccc(C(=O)NC(=S)NNC(=O)c2ccc(NC(=O)C(C)C)cc2)cc1` was 0.0333; that for `Clc1ccc(CSc2nnnn2-c2ccc3c(c2)OCO3)c(Cl)c1` was -0.127.
The figure for `O=c1c2ccccc2sn1-c1cc(S(=O)(=O)N2CCOCC2)ccc1N1CCOCC1` is -0.736.
The value for `COc1ccc(-c2cn3ccc4ccccc4c3n2)cc1` was -0.114; that for `CCOC(=O)CCc1c(C)c2ccc(OC(C)C(=O)OCC)c(C)c2oc1=O` (stereo not given) was -0.888; that for `O=C(Cc1ccc(Cl)cc1)Nc1nc2ccccc2[nH]1` was 0.0357.
In turn, `CCc1ccc(C(=O)C(C)OC(=O)C2COc3ccccc3O2)cc1` (stereo not given) yielded a z-score of -0.623.
The value for `Cc1cnc(C(=O)OCC(=O)NC(=O)NC(C)C)cn1` was 0.585; that for `CC(C)Nc1nc(Cl)nc(NNC(=O)C(C)Oc2ccccc2)n1` (stereo not given) was -0.057; that for `CC(C)c1ccc(NC(=O)NC2CCCCC2)cc1` was 0.432.
The figure for `Cc1c(C#N)c2ccccc2n1CC(=O)N1CCCc2ccccc21` is -0.568; for `CCOC(=O)C(CC)Sc1ncnc2c1nnn2-c1ccc(F)cc1` (stereo not given) it is -0.251; for `CCn1c2ccccc2c2cc(NC(=O)COc3ccccc3OC)ccc21` it is 0.73.
For the compound `Cc1cccc(-n2nc(C(=O)c3ccco3)cc(-c3nc4ccccc4[nH]3)c2=N)c1`, the z-score is -0.188.
The value for `O=C(NCc1cccnc1)C(=O)NCC(c1ccco1)N1CCN(c2ccc(F)cc2)CC1` (stereo not given) was -0.331; that for `Cn1nc(C(=O)N2CCCC2)c2ccccc2c1=O` was 1.07; that for `CCOc1nnc(C)c2c(C)n(-c3ccc(Cl)cc3)nc12` was -0.615.
The value for `O=C1S/C(=C\c2ccccc2)C(=O)N1CC(O)Cn1c2ccccc2c2ccccc21` (stereo not given) was -0.342.
The value for `CC(C)(C)c1nnc(NC(=O)C2CCN(c3ncccn3)CC2)s1` was 0.166; that for `O=C(NCc1ccco1)c1csc(Nc2ccccc2Cl)n1` was -1.61.
Turning to `CCOC(=O)c1sc(NC(=O)CSc2nc(C)cc(C(F)(F)F)n2)c(C#N)c1C`, the z-score worked out at 1.56.
The value for `CC(C)CCNc1nc2c(c(=O)n(Cc3cccc(F)c3)c(=O)n2C)n1C` was -0.671; that for `Cc1ccccc1N(C(=O)Cc1cccs1)C(C(=O)NC1CCCCC1)c1cn(C)nc1C` (stereo not given) was -0.194.
The value for `CN(C)S(=O)(=O)N1CCC(CCCC2CCN(S(=O)(=O)N(C)C)CC2)CC1` was -0.92; that for `CCCn1c(C)cc(C(=O)COC(=O)c2ccc[nH]c2=O)c1C` was 0.545; that for `N#Cc1cn(CC(=O)N2CCCC2)c2ccccc12` was -0.707.
The value for `Cc1csc(NC(=O)NC2(C(F)(F)F)Oc3ccccc3O2)n1` was -0.174.
As for `COC(=O)c1ccc(CSc2nnc(NC(C)C)s2)cc1`, the z-score is -0.419.
The value for `COc1ccc(C(=O)NCC(=O)OCc2cccc(Br)c2)cc1` was -0.0855; that for `Cc1nnc(NC(=O)CSc2nnc(Cc3cccn3C)n2C)s1` was -1.68.
The figure for `CCOc1ccc(OCCSc2nc3ccccc3o2)cc1` is 0.107.
Turning to `COc1ccc(OC(=O)c2cn(C)nc2C(F)(F)F)cc1`, the z-score is 0.00378.
The figure for `CCCCOc1ccc(C(=O)Nc2ccc(SC(F)F)cc2)cc1OC` is -0.296.
The figure for `Cc1cc(C)n2nc(-c3cnn(C)c3C(F)(F)F)cc2n1` is 0.0767.
The value for `CC(=O)c1ccc(N2CCN(C(=O)c3cc(C)on3)CC2)cc1` was 0.13; that for `Cc1coc(C)c1C(=O)CC1(O)C(=O)N(Cc2ccccc2)c2ccccc21` (stereo not given) was -0.0594; that for `N#CCCN1CCN(Cn2c3ccccc3c3ccccc32)CC1` was 0.677.
As for `Cc1ccc2[nH]c(=O)c(CN(CCO)C(=O)N(C)C)cc2c1`, the z-score is -0.0536.
As to `CN1CCN(C(=O)/C(=C\c2cccs2)NC(=O)c2cccs2)CC1`, the z-score is -0.694.
As to `CCOC(=O)c1c(N)sc2c1CCC1C(=O)N(C3CCCCC3)C(=O)C21` (stereo not given), the z-score amounted to 0.138.
The value for `CCOC(=O)c1ccc(NC(=S)N2CCC(O)CC2)cc1` was 0.0438; that for `CCCCC1(C)OC(=O)C(=Cc2ccc(N(C)C)cc2)C(=O)O1` (stereo not given) was -0.437.
The value for `COc1ccc(/C=C/C(=O)NC(=S)Nc2ccc(C(=O)O)cc2)cc1` was -0.426; that for `Cc1ccccc1N1C(=O)c2ccccc2C1Nc1cccnc1` (stereo not given) was -0.57.
The value for `Cc1ccccc1NC(=O)Nc1ccccc1C(=O)NCc1ccccc1` was -0.117; that for `COc1ccc(S(=O)(=O)N2CCC(C(=O)NCCC3=CCCCC3)CC2)cc1OC` was 0.903.
For `O=C(Cc1ccccc1)NC(=S)Nc1cc(C(F)(F)F)ccc1Cl`, the z-score worked out at 0.00533.
The value for `COc1ccc(S(=O)(=O)CCC(=O)NCCc2ccc(Cl)cc2)cc1` was -0.0642.
The figure for `Cc1cc(C(=O)N2CCN(C/C=C/c3ccccc3)CC2)cs1` is 0.0804; for `CCC(C)N1C(=O)c2ccccc2C1C(=O)NC1CCCCCC1` (stereo not given) it is -0.0901; for `CCC(c1c(C)[nH]oc1=O)c1c(C)[nH]oc1=O` it is 0.119.
The figure for `CNc1ccccc1C(C)(C)c1cc(-c2cc(C)cc(C)c2)no1` is -0.131; for `COc1ccccc1-n1c(SCC(=O)Nc2cccc3ccccc23)nc(O)cc1=O` it is 0.314.
Compound `Cc1cc(C)nc(SCC(=O)Nc2ccc(N3CCOCC3)cc2)n1` came in with a z-score of -0.197.
On to `O=C(CCCn1cnc([N+](=O)[O-])n1)Nc1ccc(Cl)cc1Cl`, for which the z-score was -0.0117.
The value for `Cc1cccc(NC(=S)N(CCc2nc3cc(C)c(C)cc3[nH]2)Cc2cccnc2)c1` was 0.689.
Compound `S=c1[nH]nc(COc2ccccc2)n1C1CCCCC1` displayed a z-score of 1.08.
`Cn1c(=O)oc2cc(S(=O)(=O)N3CCCC(C(=O)NC4CCCc5ccccc54)C3)ccc21` (stereo not given): the z-score is -0.0663.
The figure for `Cc1nc(-c2ccccc2)nc2[nH]c(-c3ccccc3)cc(=O)c12` is 0.0625; for `O=c1cc(CN2CCN(c3ccc(F)cc3)CC2)nc2sccn12` it is 0.775.
The value for `COC(=O)c1sc2nc3c(cc2c1N)COC(C)(C)C3` was -0.0485; that for `O=C1C2N=NN(CC(=O)N3N=C(c4cccc5ccccc45)CC3c3ccccc3)C2C(=O)N1c1ccccc1` (stereo not given) was -0.148.
The value for `COc1ccc(NC(=O)c2ccc(C)cc2Cl)c([N+](=O)[O-])c1` was -0.0358; that for `COc1c(Cl)cc(C(=O)Nc2ccc(Cl)cn2)cc1Cl` was -0.67.
Turning to `C/C(=N\OC(=O)c1ccc(F)cc1)c1sc(-c2ccccc2)nc1C`, the z-score was determined as 1.29.
The figure for `COc1ccc(CNc2nc(SCc3cc(=O)n4cc(Cl)ccc4n3)nc3ccccc23)cc1` is -0.702.
The figure for `CCc1nc(NCCC(C)C)c(C#N)c2c1CCCC2` is -1.37.
Compound `CCC(=O)N1CCc2cc(S(=O)(=O)CCC(=O)Nc3c(C)n(C)n(-c4ccccc4)c3=O)ccc21` showed a z-score of 0.5.
Consider `CCn1c(SCC(=O)N=Nc2c(O)[nH]c3ccccc23)nnc1-c1ccc(C(C)(C)C)cc1`, for which the z-score came to 0.73.
The figure for `COc1ccc(-c2nc(CS(=O)CC(=O)NCc3ccccn3)c(C)o2)cc1` (stereo not given) is 0.0296.
The figure for `Cc1ccc(-c2nn[nH]n2)cc1` is -0.0765; for `O=C(CSc1nnc(-c2ccccc2)n1-c1ccccc1)NCc1ccco1` it is -0.351; for `CC1(C)Cc2cccc(OCC(=O)N3CCN(c4ccccc4)CC3)c2O1` it is 0.0091.
The figure for `CCCC(=O)Nc1nc(C)c(-c2csc(Nc3ccccc3OC)n2)s1` is -0.246; for `Cc1ccccc1-c1nc2cc(N)ccc2o1` it is -0.102.
Consider `Clc1ccc2nc(N3CCCCC3)sc2c1`, for which the z-score is -0.243.
The value for `Cc1ccc(C(=O)NC(NCC2CCCO2)C(Cl)(Cl)Cl)cc1` (stereo not given) was 0.317.
Consider `O=C(COc1ccc([N+](=O)[O-])cc1)Nc1ccc(C(=O)NCc2cccnc2)cc1`, for which the z-score was -0.146.
In turn, `CCN(CC)S(=O)(=O)c1ccc(C(=O)NNc2nc(-c3ccccc3)c3cc(Br)ccc3n2)cc1` came in with a z-score of -0.309.
In the case of `CC(=O)n1nc(-c2ccc(Cl)cc2)nc1NCc1ccco1`, the z-score turned out to be 0.572.
The figure for `O=C(COc1ccc2c(c1)OCO2)NC12CC3CC(CC(C3)C1)C2` is -0.55; for `Cc1ccc(NC(=O)Cc2ccc(F)cc2)cc1` it is 0.722.
The value for `CC1CCc2c(sc3ncnc(NCCCOC(C)C)c23)C1` (stereo not given) was -0.603; that for `Cc1cc(C(=O)NCc2cccs2)c(C)o1` was -0.172; that for `CC(=O)OC1C(OC(C)=O)N(C(C)=O)C(=O)N1C(C)=O` (stereo not given) was 0.00671.
The value for `OCCN1CCN(CCOc2cccc(Cl)c2)CC1` was 0.398.
`CCOc1ccc(Cn2c(SCCCCC#N)nc3c2c(=O)n(C)c(=O)n3C)cc1OCC` registered a z-score of -0.246.
The value for `N#C/C(=C\c1ccc(-c2ccc(Br)cc2)o1)C(=O)NCCc1c[nH]c2ccccc12` was 0.016; that for `Cc1c(Cl)cnc(NC(=O)COC(=O)c2ccc([N+](=O)[O-])s2)c1Cl` was 0.683.
The value for `COc1ccc(C2(CNC(=O)c3ccc(Br)o3)CCOCC2)cc1` was 0.228; that for `c1ccc(C2=NNC(=NC3CC3)SC2)cc1` was -0.0566.
In turn, `CC1(C)CC(=O)C2=C(C1)NC(=O)CC2c1ccc(F)cc1` (stereo not given) registered a z-score of -0.481.
The figure for `O=C1C=C(Nc2ccc(Cl)cc2)CC(c2ccco2)C1` (stereo not given) is -0.447; for `COC(=O)C1=C(C)N(c2ccc(Cl)c(Cl)c2)C(=O)C1` it is 0.13; for `NC(N)=Nc1nc(CCN2C(=O)c3ccccc3C2=O)cs1` it is 0.391.
The compound `Cc1ccc(CS(=O)(=O)CCC(=O)NCc2ccccn2)cc1` had a z-score of 0.395.
The value for `COC(=O)c1ccc(NC2CC(=O)N(c3ccccc3C)C2=O)cc1` (stereo not given) was 0.283; that for `Cc1ccc(/C=C2\SC(=S)N(Cc3ccccc3)C2=O)o1` was 0.217.
The value for `CCn1c(COc2ccc(Cl)cc2)nnc1SCC(=O)Nc1ccc2c(c1)OCO2` was -1.3.
`O=C(O)CCc1ccc(-c2ccc(Cl)cc2)n1CCC(=O)O` displayed a z-score of 0.137.
The value for `Cc1ccc(N2CC(c3nc4ccccc4n3C)CC2=O)cc1C` (stereo not given) was -0.315.
